Results: PubChem BioAssay (NCATS)
Several values for one entry are separate records, joined by “and”; a condition that tells them apart may be missing. Equal entries are not always repeated. This list was built around the results that the source calls inconclusive (neither active nor inactive); the mix of calls is not that of the screen. Entries that show only a call come without a potency. Potencies of inconclusive entries are doubtful fits and often do not repeat. Activity calls are given as the source filed them. Calls follow the shape of the dose curve; as a rule, active = well fitted inhibition curve with a large enough effect; inconclusive = small, poorly fitted or top-dose-only effect; inactive = flat fitted curve, though single readings scatter.

Experiment: qHTS for Inhibitors of Plasmodium falciparum (7G8) proliferation (AID 504316); also: nearly all actives have a fitted effect of over 65% in size
Conditions: P. falciparum 7G8 in erythrocytes, SYBR Green DNA, 72 h; series mostly up to 6.7 µM
In short: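 Parasite growth measured as SYBR Green DNA fluorescence (ex 485, em 535 nm) after overnight lysis following 72 h culture at 37 °C, 0.3% parasitemia, 2.5% hematocrit. Values normalized against DMSO and 0.29 uM artemisinin controls, with plate-stack correction.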
Potency is read from the fitted curve at half-maximal effect; tags tell the direction and shape of the fitted curve.

**Q.** Which Potency does the source give for `COC(=O)CCCC1=CC2=C(c3ccccc3)C(=O)C(C)(OC(=O)C3CCCC3)C(=O)C2=CN1c1ccccc1` (stereo not given) here?
**A.** inactive

**Q.** With `CC(C)=NOCc1ccc(-c2cn([C@@H]3COC[C@@H]3O)nn2)cc1` as the compound, how does the Potency read?
**A.** inactive

**Q.** With `COc1ccc2c(c1)C(=O)[C@H](OC(=O)Nc1ccc(OC(F)F)cc1)[C@@H](c1ccc(OC)c(Br)c1)O2` as the compound, how does the Potency read?
**A.** inactive

**Q.** Which Potency does the source give for `CC(C)=CCn1cnc2c1C(NOCc1ccccc1)=NCN2` here?
**A.** inactive

**Q.** For `COC(=O)CCC(=O)OC1(C)C(=O)C2=CN(CCc3c[nH]c4ccccc34)C(c3ccc(OC)cc3)=CC2=C(Br)C1=O` (stereo not given), which Potency is on record?
**A.** inconclusive: 1.69 µM [inhibitor, partial curve, poor fit]

**Q.** With `C=C(C)C(O)C=Cc1ccc(Br)cc1` (stereo not given) as the compound, how does the Potency read?
**A.** inactive

**Q.** For `CCOC(=O)CN1C(=O)NC(c2ccc(Br)cc2)C(C(C)=O)=C1C` (stereo not given), which Potency is on record?
**A.** inconclusive: 0.0005 µM [inhibitor]

**Q.** With `Cc1cccc(C)c1Nc1oc(-c2ccccc2)nc1-c1ccccc1` as the compound, how does the Potency read?
**A.** inactive

**Q.** For `COc1ccc(O[C@H]2C=C[C@@H](c3ccccc3)O[C@H]2CON=C[C@@H](C)[C@H](OCc2ccccc2)C(C)C)cc1`, which Potency is on record?
**A.** inconclusive: 1.51 µM [inhibitor, single point]

**Q.** Which Potency does the source give for `CC1(OC(=O)CCc2ccccc2)C(=O)C=C2C=C(c3ccc(C#N)cc3)N(Cc3ccco3)C=C2C1=O` (stereo not given) here?
**A.** inactive

**Q.** For `C=CCN1c2ccccc2[C@]23CCC(=O)N(Cc4ccco4)C2=NC(C(=O)OC)=C(C(=O)OC)[C@H]13`, which Potency is on record?
**A.** inconclusive: 0.849 µM [inhibitor, full curve]

**Q.** For `COC1=C[C@@H](C(=O)N[C@H]2CCCC[C@H]2NC(C)=O)[C@@H](C)[C@H](c2ccccc2)CC1=O`, which Potency is on record?
**A.** inconclusive: 0.379 µM [inhibitor, single point]

**Q.** For `COC(=O)CCC(=O)OC1(C)C(=O)C=C2C=C(C3CC3)N(Cc3ccc(OC)cc3)C=C2C1=O` (stereo not given), which Potency is on record?
**A.** inconclusive: 4.26 µM [inhibitor, single point] and inconclusive: 1.07 µM [inhibitor, partial curve, poor fit]

**Q.** For `C=CC[C@@H]1C=C[C@H](ON=C(C)CCN2CCCCc3nc(C)c(C)cc32)[C@H](CO)O1`, which Potency is on record?
**A.** inconclusive: 2.13 µM [inhibitor, single point]

**Q.** Which Potency does the source give for `CCN1C(=O)N[C@H](c2ccc(Br)cc2)C(C(=O)OC)=C1C` here?
**A.** inactive

**Q.** Which Potency does the source give for `C=CCOC(=O)N[C@H](C(C(=O)OC)=C(C)NCc1ccccc1)c1ccc2c(c1)OCO2` here?
**A.** inactive

**Q.** With `CC(=O)C1=CN(CCc2c[nH]c3ccccc23)C(=O)NC1c1ccccc1` (stereo not given) as the compound, how does the Potency read?
**A.** inconclusive: 0.0024 µM [inhibitor, partial curve, poor fit]

**Q.** With `C=CC[C@@H]1C=CC(ON=C(C)CCC(=O)OC[C@H]2O[C@H](C#Cc3ccccc3)C=C[C@H]2Oc2ccc(C)cc2)[C@H](CO)O1` (stereo not given in full) as the compound, how does the Potency read?
**A.** inconclusive: 4.78 µM [inhibitor, single point]

**Q.** With `C=C(C(C)=O)C(O)c1ccc(C(F)(F)F)cc1` (stereo not given) as the compound, how does the Potency read?
**A.** inconclusive: 1.9 µM [inhibitor, single point]

**Q.** For `COC1=C[C@H](C(=O)NCCNC(C)=O)[C@H](C)[C@@H](c2ccccc2)CC1=O`, which Potency is on record?
**A.** inactive

**Q.** Which Potency does the source give for `C=CCN1C=C2C(=O)C(C)(OC(=O)C3CCCC3)C(=O)C(c3ccccc3)=C2C=C1CCCC(=O)OC` (stereo not given) here?
**A.** inactive

**Q.** Which Potency does the source give for `C=CCN1c2ccccc2[C@]23C[C@@H](C(=O)OC)N(C(=O)C4CCC4)C2=NC(C(=O)OC)=C(C(=O)OC)[C@H]13` here?
**A.** inconclusive: 4.26 µM [inhibitor, single point]

**Q.** For `COC(=O)C1=C(C(=O)OC)[C@@H]2Nc3ccccc3[C@@]23C[C@@H](C(=O)OC)N(C(=O)N2CCNC2=O)C3=N1`, which Potency is on record?
**A.** inconclusive: 2.13 µM [inhibitor, single point]

**Q.** For `Cc1ccc(S(=O)(=O)NC(CCc2ccccc2)CC(=O)C(C)(C)C)cc1` (stereo not given), which Potency is on record?
**A.** inactive

**Q.** Which Potency does the source give for `C=CCOC(=O)N[C@H](c1cccc(OC)c1)[C@H](C)C=CCC(=O)OC` here?
**A.** inactive

**Q.** Which Potency does the source give for `C[C@@H]1C=CCCO[C@]12C(=O)N(CC1CC1)c1ccccc12` here?
**A.** inactive

**Q.** With `O=C1[C@H]2[C@@H]3[C@@H](O)[C@H](O)CC(=NOCc4ccccc4)[C@H]3CC[C@H]2C(=O)N1C1CCCCC1` as the compound, how does the Potency read?
**A.** inconclusive: 4.26 µM [inhibitor, single point]

**Q.** Which Potency does the source give for `CCN(CC)CCCN1C=C2C(=O)C(C)(OC(=O)C3CCCC3)C(=O)C(c3ccccc3)=C2C=C1CCCC(=O)OC` (stereo not given) here?
**A.** inactive

**Q.** With `COCCN1C(=O)N[C@@H](c2ccccc2)[C@H](C(=O)OC)[C@H]1C` as the compound, how does the Potency read?
**A.** inactive

**Q.** For `CCCCC1=CC2=C(c3ccco3)C(=O)C(C)(OC(=O)c3ccc(OC)cc3)C(=O)C2=CN1CCOC` (stereo not given), which Potency is on record?
**A.** inactive

**Q.** Which Potency does the source give for `COC(=O)C1=C(C(=O)OC)[C@@H]2N(C)c3ccc(OC)cc3[C@@]23C[C@@H](C(=O)OC)N(C(=O)C2CCC2)C3=N1` here?
**A.** inactive

**Q.** Which Potency does the source give for `C=CC[C@@H]1C=CC(ON=CC[C@@H]2C=C[C@@H](OC(C)=O)[C@@H](COC(C)=O)O2)[C@H](CO)O1` (stereo not given in full) here?
**A.** inconclusive: 1.35 µM [inhibitor, partial curve, poor fit]

**Q.** With `CCN1C(=O)[C@@H]2[C@H]3[C@H](O)[C@H](O)CC(=NNC(=O)OCc4ccccc4)[C@@H]3CC[C@H]2C1=O` as the compound, how does the Potency read?
**A.** inconclusive: 0.0038 µM [activator, full curve, poor fit]

**Q.** For `COC(=O)C1=C(C)N(Cc2ccccc2)C(=O)N[C@H]1c1cccs1`, which Potency is on record?
**A.** inactive

**Q.** Which Potency does the source give for `CC#CCN1c2ccccc2[C@]23C[C@@H](C(=O)OC)N(C(=O)c4ccco4)C2=NC(C(=O)OC)=C(C(=O)OC)[C@H]13` here?
**A.** inactive

**Q.** For `CC(C)CON=C1C[C@@H](O)[C@@H](O)[C@@H]2[C@H]3C(=O)N([C@@H](C)c4ccccc4)C(=O)[C@@H]3CC[C@H]12`, which Potency is on record?
**A.** inactive

**Q.** With `COC(=O)C1=C(C)N(Cc2ccccc2)C(=O)N[C@H]1c1cccc(F)c1` as the compound, how does the Potency read?
**A.** inactive

**Q.** Which Potency does the source give for `COc1cccc(CC(=O)N2CCc3nc(COc4ccccc4)c4c(c3C2)CO[C@@H](C)C4)c1` here?
**A.** inconclusive: 4.26 µM [inhibitor, partial curve, poor fit]

**Q.** Which Potency does the source give for `CC=C[C@@H]1Oc2ccc(OC)cc2N2C(=O)[C@H](C)[C@@H](OCOC)[C@H]12` here?
**A.** inconclusive: 1.51 µM [inhibitor, single point]

**Q.** Which Potency does the source give for `C#CC1(O)C(OC)=CC2C(=O)C1C(c1ccccc1)C2C` (stereo not given) here?
**A.** inactive
